167 variants from the RNAGym collection of RNA variant scans (doi:10.7554/elife.90254) can be followed below.

The source gives no read counts; variants with many changes may rest on few reads.

Sequences and labels used below:
B1: OR4K15 (parent)
chain: GUUAACGGUCAUAGGCCAUGGAAACUAGGAGCACCAUUUCGCUGCCAGUGAAGAAAUGAACAAAGAAAAUCUGGGCCAGGCAGGCAUCAAAAGAAAUAGUCUUGCGCUCAACCAGAAAGUCUGUAAUCAUUUUAAGGGUA

In this series the parent is B1. As to the kind of experiment: self-cleavage, relative activity (ratio to wild type); higher = more cleavage; in vitro, sequencing; the parent is a self-cleaving ribozyme.
For the variant A18U A23G A60G A66G, the self-cleavage was found to be 0.49. Turning to A18G A23G C32U U37C U127C, the self-cleavage is 0.8. The value for U19A A36G U43A A52G A60G A64G A67C was 0.57. With A18U A24G U70C U87C the figure was 0.9; with A18U U57A A129G, 0.87. With A18G A69G A117G the figure was 1.36; with G15U U100C A125G, 1.77. Regarding C17U A27U A110U, the self-cleavage is 1.08. With A18G A56G U100C U130C the figure was 1.03; with C16A A23U U43A, 0.85; with C17U U26C A54G, 0.79.

In the case of C16U G31A C107U U127A, the self-cleavage was found to be 0.12. In the case of A18G A62G A64G A126G, the self-cleavage worked out at 0.32.

Consider A18G A60U A86G A118G A126G, for which the self-cleavage is 1.13. The value for A18U A54G G58U A135G was 2.01; that for A18G G73A U122C was 0.07. With A18G U39C A94U the figure was 1.3; with A18U C85U A89G U120C, 0.27. With A18U A27G U37A U38C the figure was 1.26; with A18G A59U G79U, 0.06; with A18G A24G A117G, 1.1. Consider A18G A47C A110U, for which the self-cleavage is 0.94.

A13U U70A A110G U122C U130C U139A: the self-cleavage came out at 0.06. Regarding U19A A30G C61U U130C, the self-cleavage was found to be 0.32. With G15A A36G A89G A96G the figure was 1.45; with A18G G53A A62G, 1.24. With A18U A23G G41A A59G A63G U108C the figure was 0.15; with G15A A66U A86G U120A, 0.39. Turning to U19A A47U A64G, the self-cleavage was determined as 1.06. The value for C16U A33G A67G A94G A117G was 0.98; that for A18G A36U A63G U131C was 0.97; that for A18C C40A A78G was 0.27. The value for A18G U70G C105U was 0.06; that for A18G U72C A135G was 0.33; that for A18G A47G A68G U100C was 1.02.

In the case of A18U A60U U122C, the self-cleavage came to 1.53. As to A18G U38C A59G U122C, the self-cleavage was 0.99. Take U19A A27G A78G A91G: the self-cleavage turned out to be 0.2. With A18G A30U A55G A86U A116G the figure was 0.23; with G14A A18G A82G, 0.26; with G15A A47G U72A A116U, 0.02. With A18U U39G A66U the figure was 1.28; with A18G A33C U100C U103C, 2.08; with G15A A47G A55G A66G, 0.75. The value for A18G A23G A30G A62G A98U A110G U122C U139C was 0.1; that for A18U A67G A78G U100C U130C was 0.27. On to G14C U38C U49C A55G A64G A117G, for which the self-cleavage is 1.1. With A18G A23G A27G A56G the figure was 0.89; with A18G U26A A98G U103C A140G, 0.06.

Turning to A18G A23U U87A A91G U131C, the self-cleavage came to 1.04. G14A U26G A82G A91G U120A: the self-cleavage came to 0.1. The value for G14U A23G A60G A90G A94G A96U was 1.24. The value for A18G C35U A78U U120A U127C was 0.16. The value for A18U A78G U130C U133C was 0.16; that for A18G U97A G136A was 2.32; that for G15A A22U A67G A98U A126G was 1.37. For A18U U26C A66C A68G A69G, the self-cleavage was found to be 0.71. Consider A18G U57G A86G U100A, for which the self-cleavage was 0.33. The value for C17A G48A C81U was 0.45.

With U19A A22G U37C A56G, the self-cleavage was found to be 1.1. For A18C U70C U108C, the self-cleavage was found to be 0.03. The value for A18G C32A A110U A114U A118U was 0.02. A18G A54U A64G: the self-cleavage is 1.85. With C16U U19A A59G A78G U103C C113U the figure was 0.03; with A18G A22G A78G A82G A114G, 0.08; with A18U U49G A118G U127C, 0.21. Turning to A18G A60G U120C, the self-cleavage amounted to 0.86. A18G U103C A134G: the self-cleavage came to 0.46. The value for A18U A30G U43A U120C was 2.23; that for A18G A22U U43C U100A was 0.71; that for A18G U70C U72C was 0.23. With A18G U43C U102A U130C the figure was 0.77; with A18C A52C A129G G136A, 0.72; with C16A A91G A98U, 1.25.

As for A18G A33C G50A U70C A90G A126C, the self-cleavage was 0.58. With A18G A27G A110G U122C the figure was 0.23. The value for A18G A68G U130C A135C was 1.43; that for A18G U103C U132A was 1.38. The value for A18G G21A A90U A92G was 1.33. Regarding U19A A36U A117G, the self-cleavage was 2.3.

G14A U43C C77U: the self-cleavage worked out at 1.37. Regarding A18U U39C U43C A67G C71U A78G, the self-cleavage was determined as 0.19. For A18G A60G A125G, the self-cleavage was found to be 0.44. The value for A18G A52U U57C U70A A89U was 1.08; that for A18G A89G A90G U103A A118G G123A was 0.29.

Turning to A18C A23G U38C, the self-cleavage was 0.13. The value for A18C A69G A111G was 0.02.

Take C16U U26C U131C: the self-cleavage came out at 2.34. Take G14C A24G A30U: the self-cleavage was 1.16. With U19A A22G A30G G44A U127C the figure was 0.36; with G14A A24G A62G C81A U100C A135U, 0.21; with A18G U19C A54G U122C, 1.15.

In the case of A18G A63G U108A, the self-cleavage was determined as 0.04.

A18G A23G U38C A68G: the self-cleavage was determined as 0.78. The value for A18U A67G U72G was 0.33.

For the variant C17U A24G A30G A67G, the self-cleavage was 0.89.

Regarding C17U A56G A135G, the self-cleavage turned out to be 0.9.

As for A18G A27U A91G, the self-cleavage was 0.54.

As to A18G A24G U57G U102C A114G A134G, the self-cleavage worked out at 0.61. The value for A18G U26A U38C U43C was 0.97.

In the case of G14A A52G A55G A66G, the self-cleavage was found to be 0.61. With G14U A111G U133C the figure was 0.02; with U19A A24C U39C U97A U139C, 2.07. The value for A18U A51G A60G U72C was 0.29; that for G15A U37G A55G A64G A69G A78U A96G was 0.14; that for A18G A55G A135G was 1.02. The value for C17U A18U U19C A27U A92G U130C was 1.18; that for A18G A47C U102C was 2.18.

Take A18G A56G A78G A126G: the self-cleavage was 0.62. With A18G U37C U139A, the self-cleavage was 1.09. With U19A A36G A111U the figure was 0.15.

With C17U A117G U131C, the self-cleavage stood at 0.85. The value for G15U A89U A118G was 1.1; that for A18G A47G U70C was 0.49.

Consider G15A A30G A67G G136U, for which the self-cleavage worked out at 1.29. With G14A U49C A52G A54G A78G A95C the figure was 0.06. The value for A18G U100C U132C was 1.62; that for A18G A51G A90G U131C A140U was 0.28; that for C17U C32G A33G was 0.62. A18G A92G U122C: the self-cleavage stood at 0.76. With A18G U102C A116G U120C the figure was 0.16. The value for A13U U72C A129G was 0.19. The value for C16A A30U A54G A69G A126G U130C was 0.43; that for A18U A23G A92G was 1.47. Turning to A18U U19A C45U A82U U100C, the self-cleavage turned out to be 0.32.

As for A18U A36G U49C A63G A135G, the self-cleavage worked out at 1.66. The value for A18U A54G A60G U87A G115U A126G was 0.09. The value for A18C A33G A91C was 0.45.

For G14A A33G U70C A90G U102C, the self-cleavage was 0.44. The value for A18U A55G A118G was 0.75; that for A13U U43A A82G A90G A110G was 0.03; that for A18U A129U A140G was 0.76. With A18G U43C A62G A68G A129G U131C the figure was 0.94; with A18U U19C A23U C113U, 0.06.

A18U U37C A54G U108C A114G: the self-cleavage came out at 0.01.

Turning to A18G A23C U43A U120C U130C, the self-cleavage is 1.1. In the case of C16U A66G A69G, the self-cleavage came out at 0.62.

With A18G A24G A96G, the self-cleavage is 0.92. The value for A18G U38A U100C A114G was 2.03. With A18G A22G A54G the figure was 1.2; with C17U U108C A140G, 0.02; with A18G A55G U70G, 1.01. With A18G A55G A59G A89C, the self-cleavage was determined as 0.78. With U19A A51G A63G C81A A82U U102C U127C the figure was 0.18; with A18U A92G A94G, 0.64; with C16G A59G A60G A67G A78G, 0.35. With C17U A52G A54G the figure was 0.97; with A18G A52G U72C G73A, 0.19. The value for A18G A55G A118C was 0.46; that for C17A A33G U87A was 0.62.

On to U19A A22G A55U A111G A125G, for which the self-cleavage turned out to be 0.01.

A18G A30G A47G U122C: the self-cleavage came out at 0.55. Turning to A18C U38C A92G, the self-cleavage is 1.44.

For U19A A24G A111G, the self-cleavage was determined as 0.17. The value for A18U A95G A118U was 1.14; that for A18U A33G A54U U102C A116G U132C was 0.46. The value for G14A A55G U122C A129G A135G was 0.37; that for C16U A23G A111G U133C A140G was 0.02; that for A18G U49A A67G A68G A94G U100C A126C U131C was 0.68. With C16G A22G A55G A89G A94G the figure was 0.41; with A18G C45U A62G, 0.89; with A18G A23G A86G U100C A110G U127C, 0.04. Consider A18G A36G A66G C113G, for which the self-cleavage worked out at 0.01.

For the variant G14A A63G A94G, the self-cleavage amounted to 1.23. With A13U U39C A56G A117G the figure was 0.23; with A18U A27G A59G U100C U122C, 1.38; with A18G A33G U43C A67G A78C U108C, 0.01.
